# Some of the results follow. Many values rest on one well or one pass, so single values are uncertain.
# Tests used:
# Test in all cases: cell count relative to DMSO control; melanoma cells; higher = more viable cells
# Conditions in all cases: library dose: standard library concentration; 72 h
# [1] = system: SkMel28
# [2] = system: SkMel2
# [3] = system: SkMel30
# [4] = system: SkMel5
# [5] = system: UACC257
# [6] = system: UACC62
# [7] = system: WM115
# [8] = system: WM1716
# [9] = system: WM1745
# [10] = system: WM3526
# 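Note: cells treated in 1,536-well plates, then fixed and DAPI-stained, with nuclei counted from automated high-throughput microscope images.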
SMILES,cell count [1] [%],cell count [2] [%],cell count [3] [%],cell count [4] [%],cell count [5] [%],cell count [6] [%],cell count [7] [%],cell count [8] [%],cell count [9] [%],cell count [10] [%]
"CN(C)S(=O)(=O)c1ccc2c(c1)/C(=C/c1cc3c([nH]1)CCCC3)C(=O)N2 + CC(C)CCN1c2nc(Nc3cc(F)c(O)c(F)c3)ncc2N(C)C(=O)C1C [BID1870] (first compound 2 µM, partner dose 1 µM)",57.3,81.3,81.7,81.3,80.3,74.4,53.8,67.9,60.7,72.4
"C=CCn1c(=O)c2cnc(Nc3ccc(N4CCN(C)CC4)cc3)nc2n1-c1cccc(C(C)(C)O)n1 + Oc1nc(-c2ccc(C(F)(F)F)cc2)nc2c1CSCC2 [XAV939] (first compound 0.1 µM, partner dose 10 µM)",32.9,65,80.6,40,71.7,68.2,64.7,67.4,46.5,81.2
"NCC(=O)Nc1ccc(-n2nc(C(F)(F)F)cc2-c2ccc3c(ccc4ccccc43)c2)cc1 + COc1cc(N2CCC(N3CCN(C)CC3)CC2)ccc1Nc1ncc(Cl)c(Nc2ccccc2S(=O)(=O)C(C)C)n1 [NVP-TAE684] (first compound 5 µM, partner dose 0.4 µM)",29.7,39.7,54,50,83.6,55,77.6,79.9,43.3,50.5
"C=CCn1c(=O)c2cnc(Nc3ccc(N4CCN(C)CC4)cc3)nc2n1-c1cccc(C(C)(C)O)n1 + O=C(Nc1cccc(Cl)c1)Nc1ncc(CCNc2ncnc3ccsc23)s1 [SNS314] (first compound 0.1 µM, partner dose 0.004 µM)",38.5,68.7,80.9,51.5,62.3,69.3,36.9,44.2,48.8,55.7
"CN(C)S(=O)(=O)c1ccc2c(c1)/C(=C/c1cc3c([nH]1)CCCC3)C(=O)N2 + O=C1NC(=O)/C(=C/c2ccc(-c3ccc(F)cc3O)o2)S1 [AS252424] (first compound 2 µM, partner dose 5 µM)",78.2,89.2,65.3,73.6,88.8,69.2,53.1,61.6,67.6,63.1
"NC(=O)Nc1cc(-c2cccc(F)c2)sc1C(=O)N[C@H]1CCCNC1 + O=C(O)c1ccc(-c2c[nH]c3ncc(-c4ccccc4)cc23)cc1C1CCCC1 [GSK650394] (first compound 0.1 µM, partner dose 0.8 µM)",43.6,77.8,96.1,87.3,88.1,89.9,59.5,65.3,67.9,63.6
"Cc1nc(Nc2ncc(C(=O)Nc3c(C)cccc3Cl)s2)cc(N2CCN(CCO)CC2)n1 [dasatanib] + COc1cc(Nc2ncc(F)c(Nc3ccc4c(n3)NC(=O)C(C)(C)O4)n2)cc(OC)c1OC [Tamatinib] (first compound 0.02 µM, partner dose 2 µM)",46.4,59.9,86.7,28.9,66.3,71.8,59.7,17.9,19.9,62.4
"NCC(=O)Nc1ccc(-n2nc(C(F)(F)F)cc2-c2ccc3c(ccc4ccccc43)c2)cc1 + c1cc(-c2cnn3cc(-c4ccc(OCCN5CCCCC5)cc4)cnc23)ccn1 [Dorsomorphin] (first compound 5 µM, partner dose 2 µM)",13.4,43.6,28,51.5,68.2,41.8,90.3,76.5,60.4,39.9
"Cc1nc(Nc2ncc(C(=O)Nc3c(C)cccc3Cl)s2)cc(N2CCN(CCO)CC2)n1 [dasatanib] + O=C1NC(=O)/C(=C/c2ccc(-c3ccc(F)cc3O)o2)S1 [AS252424] (first compound 0.02 µM, partner dose 5 µM)",84.4,78.2,75,59.3,85.6,102,54.4,33.8,44.3,75.3
"Cc1nc(Nc2ncc(C(=O)Nc3c(C)cccc3Cl)s2)cc(N2CCN(CCO)CC2)n1 [dasatanib] + C[C@@H]1CCN(C(=O)CC#N)C[C@@H]1N(C)c1ncnc2[nH]ccc12 [CP690550] (first compound 0.02 µM, partner dose 5 µM)",86.7,80.8,107,64.3,86.2,95.1,70.9,60.1,38,90
"C[C@]1(c2nc3c(C(N)=O)cccc3[nH]2)CCCN1 [Veliparib] + c1cc(-c2cnn3cc(-c4ccc(OCCN5CCCCC5)cc4)cnc23)ccn1 [Dorsomorphin] (first compound 7 µM, partner dose 2 µM)",62.3,73.8,93.3,56.6,83,64.6,60.6,68.7,42.6,64.9
